Data from PubChem BioAssay (Tox21).
Several values for one entry are separate records, joined by “and”; a condition that tells them apart may be missing. Equal entries are not always repeated. This list was built around the results that the source calls inconclusive (neither active nor inactive); the mix of calls is not that of the screen. Potencies beside an inconclusive call are fits to weak or partial responses and may not hold up. A structure can be active in one record and inactive in another. Activity calls are given as the source filed them. Calls follow the shape of the dose curve; as a rule, active = well fitted curve in the direction sought with a large enough effect in the repeat runs; inconclusive = weak or mixed curves; inactive = no such curve, though single readings can be large; an effect the other way counts as inactive or inconclusive.

Test: qHTS assay to identify small molecule antagonists of the glucocorticoid receptor (GR) signaling pathway - cell viability counter screen (AID 720693); also: nearly all actives have a fitted effect of over 55% in size
Settings: GR-bla HeLa viability, CellTiter-Glo luminescence, 18 h, with 5 nM dexamethasone present; viability change, negative = cytotoxic: at 58.5 µM (top of the series) unless noted
% is scaled to controls: 0 for no effect and ±100 for the full control effect; potency is read from the fitted curve at half-maximal effect; tags tell the direction and shape of the fitted curve.

| SMILES | Potency |
| --- | --- |
| CC(C)CC(C)N (stereo not drawn) | inactive |
| CCOP(OCC)OCC | inactive |
| NC(=O)C(Cl)(Cl)Cl | inconclusive: 61.9 µM [rising, single point] |

Test: qHTS assay for identifying genotoxic compounds that show differential cytotoxicity against isogenic chicken DT40 cell lines with known DNA damage response pathways - wild type cell line (AID 743012); also: nearly all actives have a fitted effect of over 60% in size
Settings: DT40 wild type chicken cells viability, CellTiter-Glo, 40 h; activity change, negative = cytotoxicity: at 68.4 µM (top of the series) unless noted
Outline: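 First, wild type DT40 cells were plated at 300 per well and equilibrated about 0.5 h at 37 C/5% CO2. Next, compounds in DMSO were added and exposure lasted 40 h. Finally, CellTiter-Glo was added for 30 min at room temperature and luminescence recorded.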

| SMILES | Potency | activity change, negative = cytotoxicity |
| --- | --- | --- |
| C=CCc1ccc2c(c1)OCO2 | inconclusive: 27.4 µM [rising, single point] |  |
| CCCC(C)(COC(N)=O)COC(=O)NC(C)C (stereo not drawn) | inconclusive: 33.5 µM [cytotoxic] and inactive |  |
| CC(C)CC(C)N (stereo not drawn) | inactive |  |
| NC(=O)C(Cl)(Cl)Cl | inactive |  |
| CC/C(=N\OC/C=C/Cl)C1=C(O)CC(C2CCOCC2)CC1=O (stereo not drawn) | inactive |  |
| C=CC(=O)OCCCCO | inconclusive: 61.1 µM [cytotoxic] |  |
| C/C=C/C=O | inactive |  |
| CC(C)C(Br)C(=O)NC(N)=O (stereo not drawn) | inconclusive: 6.68 µM [rising, single point] |  |
| O=C1C[C@@H]2OCC=C3CN4CC[C@]56c7ccccc7N1[C@H]5[C@H]2[C@H]3C[C@H]46 | inconclusive: 26.6 µM [cytotoxic, partial curve, poor fit] and active: 26.6 µM |  |
| CC(O)CCO (stereo not drawn) | inconclusive: 68.6 µM [cytotoxic, single point] |  |
| CC(C)(C)c1ccccc1O | inconclusive: 68.6 µM [cytotoxic] | inconclusive: 26.6% [at 95 µM] |
| c1ccoc1 | inactive |  |
| Oc1ccc([C@H]2CNCc3c2ccc(O)c3O)cc1O | inconclusive: 33.5 µM [cytotoxic, single point] |  |
| Nc1ccc(Cl)c(Cl)c1 | inconclusive: 0.557 µM [rising, single point] |  |
| O=C(O)C(Br)Br | inactive |  |
| CCn1cc[n+](C)c1 | inconclusive: 48.1 µM [rising, single point] | inconclusive: 8.44% [at 95 µM] |
| CCCN(CCC)c1c([N+](=O)[O-])cc(S(C)(=O)=O)cc1[N+](=O)[O-] |  | inconclusive: 36.3% |
| N#CC(c1ccccc1)c1ccccc1 | inconclusive: 43.2 µM [rising, partial curve] |  |
| Clc1cccc2ccccc12 | inactive |  |

Test: qHTS assay for identifying genotoxic compounds that show differential cytotoxicity against isogenic chicken DT40 cell lines with known DNA damage response pathways - Rev3 mutant cell line (AID 743014); also: nearly all actives have a fitted effect of over 55% in size
Settings: chicken DT40 Rev3-/- viability, CellTiter-Glo, 40 h; activity, negative = cytotoxicity: at 68.4 µM (top of the series) unless noted

| SMILES | Potency |
| --- | --- |
| Cc1ccc(N)cc1Cl | inconclusive: 69.4 µM [rising, partial curve, poor fit] |
| CCCC(C)(COC(N)=O)COC(=O)NC(C)C (stereo not drawn) | inconclusive: 33.5 µM [cytotoxic, single point] |
| CC1C(=O)C[C@]2(C(C)C)C[C@H]12 (stereo partly drawn) | inactive |
| N#CCc1ccccc1 | inactive |
| COC1CC(=C(c2cccs2)c2cccs2)C[N+](C)(C)C1 (stereo not drawn) | inconclusive: 29.8 µM [cytotoxic, partial curve] |
| CC(C)(C1CCC(O)CC1)C1CCC(O)CC1 (stereo not drawn) | inconclusive: 43.3 µM [cytotoxic, partial curve, poor fit] |
| CCCCCCI | inactive |
| O=c1n(Cl)c(=O)n(Cl)c(=O)n1Cl | inconclusive: 26.6 µM [rising, partial curve, poor fit] |
| CC(=O)[O-].CC(=O)[O-].[Hg+2] | active: 1.54 µM |
| C/C=C/C=O | inactive |
| O=C1C[C@@H]2OCC=C3CN4CC[C@]56c7ccccc7N1[C@H]5[C@H]2[C@H]3C[C@H]46 | active: 26.6 µM |
| CC(C)(C)c1ccccc1O | inconclusive: 69.4 µM [cytotoxic, single point] |
| Cc1ccc2c(c1)C1CN(C)CCC1N2 (stereo not drawn) | inconclusive: 13.3 µM [cytotoxic, partial curve] |
| c1ccoc1 | inconclusive: 72.5 µM [rising, partial curve, poor fit] |
| Oc1ccc([C@H]2CNCc3c2ccc(O)c3O)cc1O | inconclusive: 33.5 µM [cytotoxic, single point] |
| CC(=O)[O-].CC(=O)[O-].O.O.O.[Pb+2] | inactive |
| CCC(=O)OC1(c2ccccc2)CCN(C)CC1 | inconclusive: 22.8 µM [cytotoxic, partial curve, poor fit] |
| CCn1cc[n+](C)c1 | inactive |
| Nc1nc(N)nc(N)n1 | inactive |
| CCC(Br)(CC)C(=O)NC(N)=O | active: 54.5 µM |

Test: qHTS assay for identifying genotoxic compounds that show differential cytotoxicity against isogenic chicken DT40 cell lines with known DNA damage response pathways - Rad54/Ku70 mutant cell line (AID 743015); also: nearly all actives have a fitted effect of over 60% in size
Settings: DT40 Rad54/Ku70 mutant viability, CellTiter-Glo, 40 h; activity change, negative = cytotoxicity: at 66.8 µM (top of the series) unless noted

| SMILES | Potency |
| --- | --- |
| C=CC(=O)OC(C)(C)C | inactive |
| CCCC(C)(COC(N)=O)COC(=O)NC(C)C (stereo not drawn) | inconclusive: 33.5 µM [cytotoxic, single point] |
| O=S(=O)(O)OOS(=O)(=O)O | inactive |
| CC1(C)Cc2cccc(O)c2O1 | inconclusive: 71.2 µM [cytotoxic, single point] |
| CCOP(OCC)OCC | inconclusive: 69.8 µM [cytotoxic, partial curve, poor fit] |
| O=[N+]([O-])c1ccc(Oc2ccc(Cl)cc2Cl)cc1 | inconclusive: 68.9 µM [cytotoxic, single point] |
| CC(C)c1c(CN(C)C(C)Cc2ccccc2)n(C)n(-c2ccccc2)c1=O (stereo not drawn) | inconclusive: 14.3 µM [cytotoxic, partial curve, poor fit] |
| Clc1cccc(SC2CCNCC2)n1 | inconclusive: 33.5 µM [cytotoxic, single point] |
| CC(C)(C)c1ccccc1O | inconclusive: 61.1 µM [cytotoxic, single point] |
| O=C1NCN(c2ccccc2)C12CCN(CC1COc3ccccc3O1)CC2 (stereo not drawn) | inconclusive: 33.5 µM [cytotoxic, single point] |
| Oc1ccc([C@H]2CNCc3c2ccc(O)c3O)cc1O | inconclusive: 33.5 µM [cytotoxic, single point] |
| CC(=O)[O-].CC(=O)[O-].O.O.O.[Pb+2] | inconclusive: 2.43 µM [cytotoxic, full curve] |
| Nc1ccc(Cl)c(Cl)c1 | inactive |
| CCCN(CCC)c1c([N+](=O)[O-])cc(S(C)(=O)=O)cc1[N+](=O)[O-] | inconclusive: 13.7 µM [cytotoxic, partial curve, poor fit] |
